The campaign covered roughly 410,000 compounds. About 5,000 (1.2%) were called active. This list was built around the results that the source calls inconclusive (neither active nor inactive); the mix of calls is not that of the screen. Calls come from the whole dose curve; as a rule, active = well fitted inhibition curve with a large enough effect; inconclusive = small, poorly fitted or top-dose-only effect; inactive = no such curve, though single readings can be large or run the other way. Potencies beside an inconclusive call are fits to weak or partial responses and may not hold up.
Assay: qHTS for Inhibitors of TGF-b; note: nearly all actives have a fitted effect of over 65% in size
Conditions: HepG2 CAGA-GFP TGF-b/SMAD3 reporter, GFP fluorescence, 18 h, TGF-beta stimulated, 500 pg/mL final; series mostly up to 46.1 µM; activity, negative = inhibition: at the top concentration
In short: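 TGF-beta reporter screen: HEPG2 CAGA-GFP, 1% FBS, 500 pg/mL TGF-beta final, 18 h; per-cell GFP summed per well; curves fitted and categorized by class.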
% is set by controls: 0 for no effect and ±100 for the full control effect; potency is the fitted concentration of half-maximal effect; tags give direction and shape of the fitted curve.

Compound	activity, negative = inhibition	Potency
CC(/C=N/NC(=O)c1ccccc1F)=C\c1ccccc1	inactive: 1.79%	–
Cc1cc(Nc2ccc(C)c(Cl)c2)n2nc(-c3ccccc3)nc2n1	–	inconclusive: 0.562 µM [inhibitor, full curve]
CC(=O)Nc1cccc(-c2ccnc3c2CC(C)(C(=O)NCc2ccncc2)O3)c1 (stereo not drawn)	inactive: 0.926%	–
Cc1onc(-c2ccccc2)c1C(=O)N/N=C/c1cc(Br)c(O)c(Br)c1	–	inconclusive: 35.5 µM [inhibitor, single point]
CC(=O)c1cnc(-c2ccccc2)s1	–	inconclusive: 3.98 µM [inhibitor, single point]
COc1ccc(-c2ccnc3c2c(=O)n(C)c(=O)n3C)cc1OC	inactive: 8.21%	–
CCOC(=O)N1CCC(NC(=O)c2cc3c(=O)[nH]c4ccccc4c3n2C)CC1	–	inconclusive: 5.62 µM [inhibitor, partial curve, poor fit]
COc1ccc(N2C(=O)CC(Sc3nnnn3-c3ccc(F)cc3)C2=O)cc1 (stereo not drawn)	–	inconclusive: 20 µM [inhibitor, partial curve, poor fit]
CCCCNC(=O)N(O)C1N(/N=C/c2ccccc2O)C(=S)SC1(C)C (stereo not drawn)	–	inconclusive: 14.1 µM [inhibitor, single point]
COc1ccc(OC)c(S(=O)(=O)NC2CCCCC2)c1	–	inconclusive: 25.1 µM [inhibitor, single point]
O=C(C[n+]1ccccc1Br)c1ccc(F)cc1	inactive: 11.9%	–
COc1ccc([C@H]2CC(=O)C=C(c3ccc4ccccc4c3)C2)cc1OC	–	inconclusive: 3.98 µM [inhibitor, full curve]
O=C(COc1ncnc2ccccc12)Nc1cccc(S(=O)(=O)N2CCOCC2)c1	–	inconclusive: 5.62 µM [inhibitor, single point]
Cc1ccc(-c2nc3scc(CCNS(=O)(=O)c4ccc(Oc5ccccc5)cc4)n3n2)cc1	–	inconclusive: 14.1 µM [inhibitor, single point]
O=C(NC1CCCCC1)C(c1ccccc1)N(C(=O)Cc1ccsc1)c1ccccc1 (stereo not drawn)	inactive: -1.04%	–
Cc1cccc(/C(N)=N/OC(=O)N2c3ccccc3Sc3ccccc32)c1	inactive: 8.32%	–
CSCCOC(=O)C1=C(C)NC(=O)CC1c1ccccc1Cl (stereo not drawn)	–	inconclusive: 2.82 µM [inhibitor, partial curve, poor fit]
COc1ccc(C)cc1NC(=O)CSc1nnc(COc2ccc(C)cc2)n1Cc1ccco1	–	inconclusive: 14.1 µM [inhibitor, single point]
O=C(O)CCCCCN1C(=O)c2ccc(C(=O)O)cc2C1=O	–	inconclusive: 35.5 µM [inhibitor, single point]
CCc1nnc(NC(=O)C2CCCN(c3nc(C)cc(C)n3)C2)s1 (stereo not drawn)	inactive: 12.3%	–
COc1cccc(-n2c(-c3cccc(S(=O)(=O)N(C)C)c3)n[nH]c2=S)c1	–	inconclusive: 15.8 µM [inhibitor, single point]
O=C1[C@H](Cc2ccccc2)NC/C=C\C[C@H](c2ccc(Cl)cc2)N1Cc1ccc(Cl)cc1	–	inconclusive: 15.8 µM [inhibitor, single point]

Compound	activity, negative = inhibition	Potency
CC(=O)Oc1ccc(C#C/C=C2\c3ccccc3C(=O)N2c2ccccc2)cc1	–	inconclusive: 11.2 µM [inhibitor, partial curve, poor fit]
CCOC(=O)c1sc(/N=C/N(C)C)nc1C	–	inconclusive: 6.31 µM [inhibitor, single point]
N#CC1=C(N)N(c2ccccc2)C(c2ccccc2)C1(C#N)C#N (stereo not drawn)	–	inconclusive: 0.112 µM [inhibitor, full curve, poor fit]
CC(C)C(CCNC1CCN(C)CC1)c1ccc(Cl)cc1 (stereo not drawn)	–	inconclusive: 20 µM [inhibitor, single point]
Nn1cc(-c2ccccc2)nc1SCC(=O)Nc1ccc2c(c1)OCO2	–	inconclusive: 17.8 µM [inhibitor, single point]
O=C(Nc1ccccc1F)c1ccc(CN2CCN(c3ccccc3)CC2)cc1	inactive: -20.7%	–
O/N=C(\c1ccc(Cl)cc1)c1cc2ccccc2o1	–	inconclusive: 35.5 µM [inhibitor, single point]
O=C(NC(Nc1nc2ccc([N+](=O)[O-])cc2s1)(C(F)(F)F)C(F)(F)F)c1ccccc1	–	inconclusive: 0.0891 µM [inhibitor, full curve, poor fit]
Cc1ccc(C(=O)Oc2cccc(NC(=O)c3ccccc3)c2)cc1C	–	inconclusive: 28.2 µM [inhibitor, single point]
C=CCN(c1ccccc1OC)S(=O)(=O)c1cccc(C(=O)OC2CCOC2=O)c1 (stereo not drawn)	inactive: 2.54%	–
O=C(CCCSc1nc2ccccc2[nH]1)NCc1ccc(Cl)cc1	–	inconclusive: 14.1 µM [inhibitor, single point]
CCc1ccc(NS(=O)(=O)c2ccc3[nH]c4c(c3c2)CCCCCC4)cc1	–	inconclusive: 35.5 µM [inhibitor, single point]
CCc1ccccc1NC(=O)Nc1ccc2snnc2c1	–	inconclusive: 35.5 µM [inhibitor, single point]
CC(C)(C)C(=O)Cn1ncc(N2CCOCC2)c(Cl)c1=O	inactive: 7.82%	–
CN(C(=O)c1ccc(OC2CCN(Cc3ccccn3)CC2)cc1)C1CCCCC1	inactive: -8.93%	–
CC1(C)CC(CCN(Cc2ccccc2)C(=O)c2ccco2)(c2ccccc2)CCO1 (stereo not drawn)	–	inconclusive: 22.4 µM [inhibitor, single point]
Cc1ccc(/C(O)=C2\C(=O)C(=O)N(C)C2c2ccc([N+](=O)[O-])cc2)cc1 (stereo not drawn)	–	inconclusive: 25.1 µM [inhibitor, single point]
O=S(=O)(c1cc(C(F)(F)F)ccc1Cl)N1CCN(c2ccccn2)CC1	–	inconclusive: 35.5 µM [inhibitor, single point]
COCC(=O)N(C)[C@H]1C[C@H]2c3cc(-c4ccccc4)ccc3CCN2C(=O)[C@H]1[C@H](C)O	inactive: -5.09%	–
CCC(CC)C(=O)N1CCc2cc(OC)c(OC)cc2C1COc1ccc(F)cc1 (stereo not drawn)	–	inconclusive: 17.8 µM [inhibitor, single point]
CC(=O)c1cn(-c2ccc(Cl)cc2)c(=O)n(Cc2ccc(F)cc2)c1=O	inactive: 2.83%	–
